From the RNAGym collection of RNA variant scans (doi:10.1093/nar/gkz1192)
Read counts are not given, so values of variants with three or more changes are uncertain.

B1: CPEB3 Ribozyme (parent)
chain: UAACAGGGGGCCACAGCAGAAGCGUUCACGUCGCAGCCCCUGUCAGAUUCUGGUGAAUCUGCGAAUUCUGCUGUAUAUCUC

Variants of: B1
Assay: self-cleavage, relative activity (ratio to wild type); higher = more cleavage; in vitro, sequencing
Method in brief: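 For each CPEB3 ribozyme variant, relative activity is its cleaved/total read fraction divided by the unmutated ribozyme's. Barcoded error-prone PCR libraries were transcribed by T7 RNA polymerase (5 hours, 37°C) and held in DNase I for 15 min before an EDTA stop, with cleavage occurring throughout. Template-switching reverse transcription and Illumina sequencing were used to read the RNAs. A 5-read minimum applied, and results are the mean of three batches.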

Variant | self-cleavage
A5U U25C U26A C40U | 0.12
A5U G6U U25C U26G U41A A56G A57G | 0.09
G6A A13U G24A A45U U54C A77G | 0.05
A5U G8U A18U C62G | 0.09
A5U G6A A45G A57G U72A U76C | 0.09
A5U G22U A28G A35C A45G A56G C79U | 0.28
G6A A15G A18U U31C A75G | 0.04
A5U U26A U31C G46U | 0.53
A5U G9U A35U C38U U43G A57U U74A | 0.04
A5U G8A U54A A56U | 0.08
A5U G24U U49A A64G | 0.46
A5U G8C A35U U69A C79U | 0.14
A5U G22A U31G U41G | 0.12
A5U U48C U51A A57U U66A | 0.08
A5U G8U A18G A21U A28G U78C | 0.18
A5U C27G U41A | 0
A5U U26C G70U | 0.28
A5U G24A U25C A45G U49C | 0.07
G6A A15G C27A U31C G42A | 0.04
A5U G19A A20U C32G A75U U78C | 0.05
G6A A18G U25C A45G A75U | 0.03

Variant | self-cleavage
G6A A28G A47G A75U U78C | 0.11
A5U C38U U67C A75G | 0.12
A5U U51A U69C | 0.73
G6A A35C U51C | 0.44
G6A A35U G46A A56U | 0.05
A5U U26C A35G A45G | 0.85
G6A A28G U43C A56U G63A A64G U78C | 0.14
G6A A15U A18C A20G A47G | 0.47
G6A A18G C27A C38U U76C U78C | 0.04
G6A A21G A35U A56U A57G U66C U78C | 0.05
A5U U26C A64G | 0.34
A5U U26G C39U A56G C59U U60A | 0.11
A5U C29U C62G | 0.31
G6A A47G U49C | 0.26
A5U U26C C50A G53U A75G | 0.2
G6A A13U C23A A56G | 0.27
A5U G8C U54C U69C | 0.17
G6A A57G A64G | 0.16
A5U U54C U74A A75G | 1.25
A5U G9C A28G U74C | 0.31
A5U U41C U49C A77U U80C C81U | 0.57

Variant | self-cleavage
G6A A18G A35U U51C A56G | 0.31
A5U G30A U41C A56G | 0.21
A5U G10C A18U G19U U49C | 0.21
A5U U76C U80A | 1.28
G6A A15G U41C U60A | 0.36
A5U U41A A56G U67A | 0.18
A5U U72C A75U | 1.27
G6A A21G U41A A64G | 0.07
A5U U26A A35U U80A | 0.63
A5U G8A U51A | 0.29
G6A A18G U69C U72C U74C | 0.13
G6A A15G U26A U41G | 0.44
A5U U69C G70A U74G | 0.26
A5U U49C A77G | 0.46
G6A A20G A47G C68G | 0.06
A5U G9A G16U U43C C50G U66C U69C | 0.05
A5U U41A A45U C62U A64G | 0.14
A5U U60C C71U | 0.23
G6A A20G A45U A47U A57U U69C U72C | 0.08
G6A A21U U48C A75U | 0.05
A5U U41C A47G U67A U69C G73A U78C | 0.2

Variant | self-cleavage
A5U G6U A13U U48C A56U A77G | 0.06
A5U U31C A64G | 0.83
A5U U48A U69C U72A | 0.1
A5U U67C C79A | 0.24
A5U G8U A18G C32A A45U C62U G70C | 0.03
G6A A28G U43C A65G U66C | 0.15
A5U G6A G36U | 0.13
G6A A20G U49C G63C U67C | 0.15
G6A A45G U72C | 0.52
A5U G6C G7A C50U A57G U67C A77U | 0.06
G6A A45U U69C | 0.2
A5U G6A G30A U66G U69A | 0.05
A5U U31C A56U | 0.25
A5U U26C A56U A57G | 0.34
A5U U26C C32U A35U G55A U80C | 0.12
A5U G7A U25A A28U | 0.28
G6A A21G A64G | 0.05
A5U G33U U43C A65U | 0.08
G6A A15U A18G U43A A57G C62U | 0.06
A5U C32A G61A A65U U76C | 0.13
